Hit rate of the full screen: of about 370,000 compounds, about 150 (0.041%) were called active. The inconclusive results got no clear call from the source; some entries with a clear call stand among them for comparison. The call rests on the fitted dose curve; in most records, active means well fitted inhibition curve with a large enough effect; inconclusive means small, poorly fitted or top-dose-only effect; inactive means flat fitted curve, though single readings scatter. Potencies of inconclusive entries are left out as doubtful fits.
target: Beta-lactamase (Escherichia coli (strain K12)) (UniProt P00811); assay: qHTS Inhibitors of AmpC Beta-Lactamase (assay with detergent); conditions: AmpC hydrolysis of nitrocefin, absorbance 480 nm, 0.01% Triton; series mostly up to 114 µM; further: nearly all actives have a fitted effect of over 25% in size
Procedure, shortened: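 20 mM phosphate pH 7.0 + 0.01% (detergent screen) or 0.0001% Triton X-100; 5.3 nM AmpC reagent; cpd preinc 15 min RT; nitrocefin (800 uM stock) to start; A480 q20 s × 4 min; Activity was normalised to no-enzyme and no-compound control wells.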
Potency means the concentration at half of the fitted maximal effect; tags describe the fitted curve by direction and shape.

Chain of UniProt P00811 (P00811 whole entry, looked up): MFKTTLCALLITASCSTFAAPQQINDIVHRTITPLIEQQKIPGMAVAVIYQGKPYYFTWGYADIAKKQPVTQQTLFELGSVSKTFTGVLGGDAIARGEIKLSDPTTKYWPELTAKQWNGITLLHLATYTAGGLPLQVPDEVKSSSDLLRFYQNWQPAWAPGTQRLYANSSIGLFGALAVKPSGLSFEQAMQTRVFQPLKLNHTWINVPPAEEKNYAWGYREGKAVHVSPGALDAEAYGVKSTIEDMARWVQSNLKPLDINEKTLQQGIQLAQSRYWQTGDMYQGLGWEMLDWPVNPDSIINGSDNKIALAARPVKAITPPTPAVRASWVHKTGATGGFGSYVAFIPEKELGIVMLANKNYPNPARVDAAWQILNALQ

SMILES | Potency
COc1ccc(C(=O)N/N=C(\C)CC(=O)Nc2ccc(N(C)C)cc2)c(OC)c1 | inconclusive [inhibitor, full curve, poor fit]
COc1ccc(C2C=C(c3cccc(OC)c3)Nc3c(C(=O)Nc4ccccc4)cnn32)cc1 (configuration not stated) | inactive
COc1cc(OC)c(NC(=O)C2=C(C)C(=O)OC23CCCCCC3)cc1Cl | inactive
CC(C)(C)NC(=O)NC(=O)COC(=O)Cc1coc2ccc3ccccc3c12 | inactive
O=C1OC(C(=O)Nc2ccccc2)Cc2ccccc21 (configuration not stated) | inconclusive [inhibitor, single point]
O=C1c2cccnc2C(=O)N1Cc1ccccc1 | inconclusive [inhibitor, full curve]
COc1cc(C(=O)NCc2nnc(SCC(=O)N3CCCCCC3)o2)cc(OC)c1OC | inconclusive [inhibitor, full curve]
CCOC(=O)c1c(NC(=O)c2cc(-c3cccc(O)c3)on2)sc(C(C)=O)c1C | inconclusive [inhibitor, partial curve, poor fit]
CN1CCc2c(sc3c2C(=O)NC(c2ccccc2)N3)C1 (configuration not stated) | inactive
COc1ccccc1NC(=O)c1ccc2nc(C)c(C)nc2c1 | inactive
O=C(CSc1nnc(-c2cccc(Cl)c2)o1)N1CCc2ccccc21 | inactive
O=C(COC(=O)CN1C(=O)COc2ccccc21)NC1CCCCC1 | inconclusive [inhibitor, single point]
O=C(CCCN1C(=O)/C(=C/c2ccccc2Cl)SC1=S)NNC(=O)c1ccncc1 | inactive
Cc1cccc2sc(NC(=O)CN(C)S(=O)(=O)c3cccs3)nc12 | inconclusive [inhibitor, single point]
CN(C)C(=O)Oc1ccc(-c2nnco2)cc1 | inconclusive [inhibitor, full curve, poor fit]
Cc1c(C)n2c(SCC(=O)N3CCOCC3)nnc2[nH]c1=O | inconclusive [inhibitor, partial curve, poor fit]
Cc1ccnn1CCSCC(=O)O | inconclusive [inhibitor, partial curve]
CC(C)NC(=O)c1ccccc1NC(=O)Cc1ccc(Br)cc1 | inconclusive [inhibitor, full curve]
Clc1ccc(-c2csc(N3CCOCC3)n2)cc1 | inactive
CC(C)Cn1c(SCC(=O)N2CCc3ccccc3C2)nc2cc(Cl)ccc2c1=O | inconclusive [inhibitor, full curve]
O=C(N/N=C/c1cccnc1)C1CC1(c1ccccc1)c1ccccc1 (configuration not stated) | inconclusive [inhibitor, single point]
CCOCCCNCc1ccc(Cl)cc1 | inconclusive [inhibitor, full curve]
CCN1CCN(Cc2ccc(NC(=O)c3ccc(C)c(NC(=O)c4cccc(-c5cn[nH]c(=O)c5)c4)c3)cc2C(F)(F)F)CC1 | inconclusive [inhibitor, full curve, poor fit]

SMILES | Potency
CCOc1cc(S(=O)(=O)NCc2ccc(OC)cc2)c(OCC)cc1-n1cnnn1 | inconclusive [inhibitor, full curve, poor fit]
O=[N+]([O-])c1cccc(CNC2CCCCCC2)c1 | inconclusive [inhibitor, single point]
O=C(COc1cccnc1[N+](=O)[O-])Nc1ccc(S(=O)(=O)N2CCOCC2)cc1 | inconclusive [inhibitor, full curve, poor fit]
CCn1c(NCc2ccco2)nc2c1c(=O)n(C)c(=O)n2C | inactive
CCOc1ccc2oc(=O)cc(CN3CCN(c4cc(C)ccc4C)CC3)c2c1 | inactive
Cc1ccnc2nc(C(=O)OC(C)C(=O)NCc3ccccc3)nn12 (configuration not stated) | inactive
O=C(CSCc1ccc(Cl)cc1)N/N=C/c1ccccc1 | inactive
CCOc1ccc(C(F)(F)F)cc1NC(=O)COc1ccc(C(F)(F)F)cc1[N+](=O)[O-] | inconclusive [inhibitor, full curve]
CC(=O)Nc1ccc(N=C(C2=C(O)c3ccccc3C2=O)c2ccccc2)cc1 | inactive
Cc1ccccc1N1CCN(Cc2cccc(C(=O)O)c2)CC1 | inconclusive [inhibitor, partial curve]
c1cncc(CNc2c3c(nc4nnnn24)CCCC3)c1 | inconclusive [inhibitor, full curve, poor fit]
CC(C)CN(CCCNC(=O)c1cc(=O)[nH]c2ccc(S(=O)(=O)N3CCCCCC3)cc12)CC(C)C | inactive
O=C(CNC(=O)c1cccc(Br)c1)N/N=C/c1cccnc1 | inconclusive [inhibitor, full curve, poor fit]
Cc1cc2nc(/C=C/c3cccnc3)[nH]c2cc1C | inconclusive [inhibitor, partial curve]
CC(C)Oc1ccccc1C1CC(=O)Nc2c1c(=O)n(C)c(=O)n2C (configuration not stated) | inconclusive [inhibitor, full curve]
COc1ccc(NC(=O)c2ccc(-c3ccc(C)c4ccccc34)o2)cc1 | inconclusive [inhibitor, full curve, poor fit]
C=C[C@]1(C)C[C@H]1[C@H](NP(=O)(c1ccccc1)c1ccccc1)c1ccccc1 | inconclusive [inhibitor, partial curve, poor fit]
Cc1cc(C)cc(NC(=O)Nc2c(Br)cnn2C)c1 | inconclusive [inhibitor, single point]
Cc1noc(C)c1COc1ccccc1C(=O)NNC(=O)c1ccccc1F | inconclusive [inhibitor, full curve, poor fit]
CC(Oc1ccccc1)C(=O)NN1Cc2ccccc2C1=N (configuration not stated) | inconclusive [inhibitor, full curve, poor fit]
CC12/C(=N/O)C3C4CC5C3/C(=N/O)C1C5C42 (configuration not stated) | inconclusive [inhibitor, full curve, poor fit]
COc1ccc(N2CCN(C(=O)COC(=O)CCOc3ccccc3C)CC2)cc1 | inconclusive [inhibitor, full curve, poor fit]
Cc1ccc(-c2noc(CCCN3C(=O)c4ccccc4C3=O)n2)cc1 | inconclusive [inhibitor, partial curve, poor fit]

SMILES | Potency
Cc1ccc(N(CC(=O)N2CC(=O)Nc3ccccc32)S(=O)(=O)c2ccc3c(c2)OCCO3)cc1 | inconclusive [inhibitor, partial curve, poor fit]
O=C(CCCOc1ccc(Cl)cc1Cl)N1CCN(c2ccccn2)CC1 | inconclusive [inhibitor, full curve, poor fit]
O=C(Nc1nc2c(Br)cc(Br)cc2c(=O)s1)C1CCC1 | inactive
COC(=O)c1sccc1NS(=O)(=O)c1ccc(OC)cc1 | inconclusive [inhibitor, full curve, poor fit]
O=P(C(Cl)Cl)(N1CCOCC1)N1CCOCC1 | inactive
O=C(NCC1CCCO1)c1cccnc1Nc1ccccc1F (configuration not stated) | inactive
Clc1ccc(Cn2cc(/C=N/n3cnnc3)c3ccccc32)cc1 | inconclusive [inhibitor, full curve, poor fit]
CCN(CC)CCNC(=O)C(=O)NCC1OCCN1S(=O)(=O)c1ccc2c(c1)OCCO2 (configuration not stated) | inconclusive [inhibitor, full curve, poor fit]
CCCCn1c(N)c(N(CCC(C)C)C(=O)c2ccccc2-n2cnnn2)c(=O)[nH]c1=O | inconclusive [inhibitor, partial curve, poor fit]
Cc1cc(C)n(CCc2nc(-c3ccco3)cs2)n1 | inconclusive [inhibitor, partial curve, poor fit]
NC(=O)C1(N2CCCCC2)CCN(C2CC(=O)N(Cc3cccs3)C2=O)CC1 (configuration not stated) | inconclusive [inhibitor, single point]
COc1cccc(OC)c1C(=O)Nc1ccc(NC(=O)c2ccco2)cc1 | inconclusive [inhibitor, partial curve, poor fit]
Cc1csc(SCC(=O)Nc2cccc(C)c2C)n1 | inactive
CN(Cc1nccn1C)C(=O)c1cc(COc2cccc(C(F)(F)F)c2)on1 | inconclusive [inhibitor, full curve, poor fit]
CCc1cccc2c1NC(=O)[C@]21[C@@H]2C(=O)N(Cc3ccccc3)C(=O)[C@@H]2[C@@H]2CCCN21 | inconclusive [inhibitor, full curve, poor fit]
COc1ccc(NC(=O)c2cc(Br)ccc2Cl)c(OC)c1 | inconclusive [inhibitor, full curve, poor fit]
COC(=O)c1ccc(CSc2nc3c(c(=O)n2-c2ccc(Br)cc2)SCC3)o1 | inconclusive [inhibitor, single point]
COc1cccc(NC(=O)CN(C)C(=O)c2ccccc2OCC(=O)Nc2cccc(C(F)(F)F)c2)c1 | inconclusive [inhibitor, full curve, poor fit]
Cc1ccc(NC(=O)CN2CCCC2)cc1Br | inconclusive [inhibitor, full curve, poor fit]
Cc1[nH]c2ccccc2c1C(=O)CSC(=S)N(C)C | inactive
Cc1ccc(C2CC(=O)N(Cc3ccccc3F)c3c2c(C)nn3-c2nc(C)cc(C)n2)cc1 (configuration not stated) | inactive

Source: PubChem BioAssay AID485294 (National Center for Advancing Translational Sciences (NCATS), 2010)
